Source: PubChem BioAssay AID686979 (National Center for Advancing Translational Sciences (NCATS), 2013)
Out of some 420,000 compounds screened, about 50,000 (12%) were called active. Inconclusive means that the source gave no clear call. Such entries were picked first, then a sample of the others. Calls follow the shape of the dose curve; as a rule, active = well fitted inhibition curve with a large enough effect; inconclusive = small, poorly fitted or top-dose-only effect; inactive = flat fitted curve, though single readings scatter. Potencies of inconclusive entries are left out as doubtful fits.

Test: qHTS for Inhibitors of human tyrosyl-DNA phosphodiesterase 1 (TDP1): qHTS in cells in presence of CPT; also: nearly all actives have a fitted effect of over 55% in size
Conditions: chicken DT40 Tdp1-/-;hTDP1 cells + 20 nM CPT, ATP luminescence, 48 h; activity change, negative = growth inhibition: at 46.2 µM (top of the series) unless noted
Outline: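 Chicken DT40 Tdp1-/- cells stably complemented with human TDP1 were seeded at 400 cells/well in medium containing 20 nM camptothecin, exposed to pin-transferred compounds, and grown at 37 °C for at least 48 hr. Viability was read as ATP luminescence.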
% is scaled to controls: 0 for no effect and ±100 for the full control effect; potency is read from the fitted curve at half-maximal effect; tags tell the direction and shape of the fitted curve.

SMILES	Potency	activity change, negative = growth inhibition
CCc1cccc(CC)c1NC(=O)COC(=O)CC1c2ccccc2CCN1S(=O)(=O)c1ccc(F)cc1 (stereo not drawn)	inconclusive [inhibitor, single point]	–
c1ccc(C[C@H]2CNCCN2CCc2cccc3ccccc23)cc1	inconclusive [inhibitor, single point]	–
CN(C)Cc1c(O)ccc2ccccc12	inconclusive [inhibitor, single point]	–
Cn1c(=O)c2c(ncn2CC(=O)N2CCN(C(=O)c3ccco3)CC2)n(C)c1=O	–	inactive: 1.57%
Cc1sc2ncn(CC(=O)N3CCN(c4ccc(F)cc4)CC3)c(=O)c2c1S(=O)(=O)N1CCCCC1	active: 16.4 µM	–
Cc1ccc(S(=O)(=O)c2cn(CC(=O)Nc3ccc4c(c3)OCO4)c3ccccc3c2=O)cc1	–	inactive: -0.154%
O=C(CSc1nnc(SCc2ccc(Cl)cc2)s1)N/N=C/c1c(Cl)cccc1Cl	inconclusive [inhibitor, partial curve]	–
O=C(Nc1cccc2cccnc12)c1ccc2sc([C@@H]3O[C@H](CO)[C@H](O)[C@H](O)[C@H]3O)nc2c1	inconclusive [inhibitor, partial curve, poor fit]	–
CCc1cc2c(cc3c(=O)n(CC(=O)NCCCN4CC(C)CC(C)C4)ncn32)s1 (stereo not drawn)	inconclusive [inhibitor, single point]	–
Cc1cc(C)nc(/N=C(\NC(=O)C(C)(C)C)Nc2ccccc2)n1	–	inactive: 17.7%
Cc1ccc(-c2cc(C(=O)N/N=C/c3c(C)nn(-c4ccccc4)c3C)n[nH]2)s1	active: 0.651 µM	–
COc1ccc(C(=O)CSc2nc3nn(-c4ccccc4)c(=O)c-3c3n2CCCCC3)c(OC)c1	inconclusive [inhibitor, single point]	–
Cc1ccc(S(=O)(=O)N[C@H](C(=O)OCC(=O)NC(=O)NCc2ccco2)C(C)C)cc1	–	inactive: -20.7%
CCCCN(C)C/C(O)=C(\C#N)c1nc(-c2ccccc2)cs1	–	inconclusive: -33.2% [inhibitor]
COc1ccc(-c2noc(N3CCC(C(=O)Nc4cc(OC)c(OC)c(OC)c4)CC3)n2)cc1	–	inactive: -7.36%
COc1ccc(-c2nc(-c3ccncc3)no2)c(OC)c1	–	inactive: -27.8%
Cc1oc(-c2cccs2)nc1CN1CC[C@@](O)(c2ccccc2)[C@H]2CCCC[C@@H]21	inconclusive [inhibitor, single point]	–
O=C(/C(=N\Nc1ccc([N+](=O)[O-])cc1)Sc1nnnn1-c1ccccc1)c1ccccc1	inconclusive [inhibitor, partial curve]	–
CCC(=O)N1CCCc2cc(S(=O)(=O)N3CCN(c4ccccn4)CC3)ccc21	inconclusive [inhibitor, partial curve, poor fit]	–
CCCOC(=O)C1=C(C)NC(=O)NC1c1ccc(Br)s1 (stereo not drawn)	inconclusive [inhibitor, single point]	–
COc1cc(C2C(C(=O)OCC(C)C)=C(C)N=C3SCCC(=O)N32)ccc1OCc1ccccc1 (stereo not drawn)	inconclusive [inhibitor, single point]	–
Cc1nn(-c2ccccc2)c(C)c1C(=O)OCC(=O)Nc1cccc(S(N)(=O)=O)c1	inconclusive [inhibitor, single point]	–
Cn1ccc2c(/C=C/c3ccc(F)cc3)cc3c(c21)C1CCC3O1 (stereo not drawn)	active: 25.9 µM	–

SMILES	Potency	activity change, negative = growth inhibition
CC(Sc1ccc(S(=O)(=O)N2CCOCC2)cn1)c1ccccc1Cl (stereo not drawn)	inconclusive [inhibitor, single point]	–
Cc1cc(C)c2nc(N(Cc3cccnc3)C(=O)c3ccc(S(=O)(=O)N(C)C)cc3)sc2c1	inconclusive [inhibitor, single point]	–
CCc1cc(=O)oc2c(C)c(OCC(=O)NCCCn3ccnc3)ccc12	–	inactive: 0.379%
O=C(Nc1ccc(Oc2cccnc2)cc1)c1ccc([N+](=O)[O-])cc1	–	inactive: -25.6%
CC1=CC(c2ccc(Cl)cc2)n2nc(NS(=O)(=O)c3ccc(C)cc3)nc2N1 (stereo not drawn)	inconclusive [inhibitor, single point]	–
COc1nnc(-c2ccc(N3CCCCC3)c(NC(C)=O)c2)c2ccccc12	inconclusive [inhibitor, single point]	–
Cc1c(NS(=O)(=O)c2ccc3c(c2)NC(=O)CC(=O)N3)cccc1[N+](=O)[O-]	–	inactive: -4.64%
COc1ccc(NS(=O)(=O)c2ccc(C)c(C(=O)O)c2)cc1	–	inactive: -18.4%
Cn1c(N2CCN(c3ccccn3)CC2)nc2c1c(=O)n(Cc1ccccc1Cl)c(=O)n2C	inconclusive [inhibitor, partial curve]	–
COc1cc2cc(C(=O)N3CCN(Cc4ccc5c(c4)OCO5)CC3)[nH]c2cc1OC	inconclusive [inhibitor, single point]	–
Cc1nccc(-c2cccc(N/N=C(\C#N)C(=O)c3ccccc3)c2)n1	active: 20.6 µM	–
COC(=O)[C@]12CCCCC=C1N(Cc1ccc3c(c1)OCO3)C(=O)[C@H](CC(=O)N1CCN(C(=O)C3CC3)CC1)C2	inconclusive [inhibitor, single point]	–
CCOC(=O)CCc1c(C)nc2cc(C3CCCN(C(=O)OC(C)(C)C)C3)[nH]n2c1=O (stereo not drawn)	inconclusive [inhibitor, single point]	–
CC(C)c1onc(C(=O)NCc2cccs2)c1[N+](=O)[O-]	inconclusive [inhibitor, single point]	–
CCC(=O)c1ccc(OCC(=O)NCCC2=CCCCC2)c(OC)c1	inconclusive [inhibitor, single point]	–
NC(=O)N/N=C1\c2ccccc2-c2c(C(N)=O)cccc21	–	inactive: -52.9%
O=C(CSc1ncc(-c2ccccc2)n1-c1ccccc1)NCc1ccco1	inconclusive [inhibitor, partial curve, poor fit]	–
CCCn1c(SCc2ccc(C(=O)OC)o2)nc2ccccc2c1=O	inconclusive [inhibitor, single point]	–
Cn1c(C(=O)NCc2ccccc2F)cc2oc3ccccc3c21	inconclusive [inhibitor, single point]	–
CN1C(=O)N(CC(=O)N2CCN(S(=O)(=O)Cc3ccccc3)CC2)C(=O)C12CCCCC2	inconclusive [inhibitor, single point]	–
CC1(C(=O)NS(=O)(=O)c2ccccc2Cl)CCN1C(=O)CCc1ccc(Cl)cc1Cl (stereo not drawn)	–	inactive: -24.5%
CCn1c(=S)[nH]c2cc(Cl)ccc21	–	inactive: 2.51%
COc1ccc(CN2CCC3(CCC(CNC(=O)c4ccnn4C)O3)CC2)c(C)c1C (stereo not drawn)	–	inactive: -29.2%

SMILES	Potency	activity change, negative = growth inhibition
Cc1ccc(C)c(N2CCN(S(=O)(=O)c3ccc4[nH]c(=O)ccc4c3)CC2)c1	inconclusive [inhibitor, single point]	–
CSc1nc(SCC(N)=O)c2c3c(sc2n1)CN(C)CC3	inconclusive [inhibitor, partial curve, poor fit]	–
OCC(O)C(O)[C@H](O[C@H]1OC(CO)C(O)C(O)C1O)[C@H](O)CO (stereo partly drawn)	–	inactive: -2.6%
Cc1ccc(S(=O)(=O)C2(C(=O)NCc3ccccc3Cl)CC2)cc1	inconclusive [inhibitor, single point]	–
COc1ccc(C(=O)N=c2nc3ccccn3s2)cc1	inconclusive [inhibitor, single point]	–
COc1cc(-c2cc(=O)c3c(O)cc(O)cc3o2)ccc1O	active: 20.6 µM	–
COc1cc2nc(/C=C/c3cc(OC)c(OC)c(OC)c3)sc2cc1SC	active: 5.8 µM	–
CSCC[C@H](N)C(=O)NCC1CCC(C(=O)Nc2ccc3c(c2)OCO3)CC1 (stereo partly drawn)	–	inactive: -4.83%
COC(=O)c1cccc(NC(=O)CCSc2ccc(Cl)cc2)c1C	–	inactive: -16%
COc1ccc(-c2ccc(C(=O)Nc3ccc(NC(C)=O)cc3)c3occc23)c(C)c1	inconclusive [inhibitor, single point]	–
COc1ccc(-n2cnnc2SCc2csc(-c3ccccc3)n2)cc1	–	inactive: -13.9%
CN(C)CCCN(C(=O)c1cccs1)c1nc(-c2ccccc2)cs1	inconclusive [inhibitor, single point]	–
COCCCn1c(SCC(=O)Nc2ccc(C(=O)OC)cc2)nc2ccccc2c1=O	inconclusive [inhibitor, single point]	–
COc1cccc2sc(N(Cc3cccnc3)C(=O)Cc3ccccc3)nc12	inconclusive [inhibitor, partial curve]	–
O=Cc1cn(CC(=O)N2CCCc3ccccc32)c2ccccc12	active: 5.8 µM	–
Cc1cc(C)nc(/N=C(\N)Nc2ccc(CC(=O)OC(C)C)cc2)n1	inconclusive [inhibitor, single point]	–
COc1ccc([C@H]2C[C@@H](O)[C@H](n3cc(COC(=O)c4ccccc4)nn3)CN2C(=O)c2cccs2)cc1	inconclusive [inhibitor, single point]	–
CC(C)=CCc1ccc(O)c(=O)cc1C(C)C	active: 20.6 µM	–
O=C(NC(=S)NC1CCN(Cc2ccccc2)CC1)c1ccc(F)cc1	–	inconclusive: -31.1% [inhibitor]
COc1cccc(NC(=O)N2CCCC2C(=O)Nc2ccc3c(c2)OCO3)c1 (stereo not drawn)	inconclusive [inhibitor, single point]	–
CCN(C(=O)c1cccc(Br)c1)c1ccccc1	–	inactive: 0.329%
O=C1CC(c2ccccc2Oc2cccc(Cl)c2)C(n2cncn2)C(=O)C1C1NCCc2ccccc21 (stereo not drawn)	–	inactive: 7.4%
